{"source": "patent US20250345445A1", "about": "“ANTIBODY-DRUG CONJUGATE AND USE THEREOF” (CSPC MEGALITH BIOPHARMACEUTICAL CO., LTD., priority 2021, published 2025)", "molecules": {"B1": {"name": "SWY2110: EGFR antibody; heavy chains SEQ ID NO:29, light chains SEQ ID NO:30 (antibody)", "heavy": "QVQLQESGPGLVKPSETLSLTCTVSGFSLSNYDVHWVRQAPGKGLEWLGVIWSGGNTDYNTPFTSRLTISVDTSKNQFSLKLSSVTAADTAVYYCARALDYYDYEFAYWGQGTLVTVSSASTKGPSVFPLAPSSKSTSGGTAALGCLVKDYFPEPVTVSWNSGALTSGVHTFPAVLQSSGLYSLSSVVTVPSSSLGTQTYICNVNHKPSNTKVDKRV[here human IgG1 Fc without letters]", "light": "EIVLTQSPDFQSVTPKEKVTITCRASQSIGTNIHWYQQKPDQSPKLLIKYASESISGIPSRFSGSGSGTDFTLTINSLEAEDAATYYCQQNNEWPTSFGQGTKLEIKRTVAAPSVFIFPPSDEQLKSGTASVVCLLNNFYPREAKVQWKVDNALQSGNSQESVTEQDSKDSTYSLSSTLTLSKADYEKHKVYACEVTHQGLSSPVTKSFNRGEC"}}, "key": {"[1]": {"tested_on": "DiFi (human colorectal cancer cells)", "experiment": "Proliferation inhibition, DiFi cells (MTT, […])", "type": "cell-based", "conditions": "[…] drug exposure", "description": "The specific concentration settings were as follows:\nCells in logarithmic growth phase were seeded in a 96-well plate (100 μL/well) at a certain number. […] Three replicate wells were set for each drug concentration, along with corresponding blank wells (only containing culture medium) and normal wells (drug concentration of 0). […] The plates were incubated at 37° C. for 4 hours, and then the supernatant was discarded. DMSO (analytical grade) was added (150 μL per well), and the plates were shaken on a microplate shaker to mix thoroughly. The plates were then wiped clean, and the optical density (OD) was measured at 550 nm using the microplate reader.\nThe inhibition rate of the cell growth was calculated with the following equation:\nInhibition Rate(%)=(OD Valuenormal well-OD Valuedrug well)/(OD Valuenormal well-OD Valueblank well)×100%\nBased on the inhibition rates at different concentrations, the half-maximal inhibitory concentration (IC50) of the drug was calculated using SPSS 19.0. The results are shown in Tables 2 and 3, and FIGS. 17 and 18."}, "[2]": {"tested_on": "human lung adenocarcinoma PC9-GR (gefitinib-resistant cell) xenograft tumour", "experiment": "Assay 5: efficacy of SWY2110-ADC on PC9-GR xenograft tumour", "type": "in vivo, NU/NU mice", "conditions": "1 mg/kg i.v./qw*4 w", "text": "The assay was terminated on day 28 after the administration."}}}
{"molecule": "B1", "values": [{"measurement": "IC50 value", "setting": "[1]", "value": 0.04394, "unit": "µg/mL"}, {"measurement": "TGI(%) Day 28", "setting": "[2]", "value": 20.3, "unit": "%"}, {"measurement": "Tumour Volume", "setting": "[2]; 28 days after administration", "value": "628.9 ± 290.0", "unit": "mm^3"}]}
